This list was built around the results that the source calls inconclusive (neither active nor inactive); the mix of calls is not that of the screen. For some assays here: Where the call is inconclusive, the potency comes from a doubtful curve fit. Calls of active or inactive are those of the source. Unless noted, calls come from the whole dose curve; as a rule, active = well fitted curve in the direction sought with a large enough effect; inconclusive = small, poorly fitted or top-dose-only effect, or another doubt; inactive = no such curve, though single readings can be large; an effect the other way counts as inactive or inconclusive.
Tests used:
[1] = target: Aldehyde dehydrogenase, mitochondrial (Homo sapiens) (UniProt P05091); experiment: qHTS for Inhibitors of the Aldehyde Dehydrogenase Family (ALDH2) Confirmatory screens (AID 2061303; active = well fitted inhibition curve with a large enough effect; inconclusive = small, poorly fitted or top-dose-only effect; inactive = no such curve, though single readings can be large or run the other way; title and protocol of this record describe different tests; note: nearly all actives have a fitted effect of over 45% in size; note: potency is the fitted concentration of half-maximal effect); settings: ALDH inhibition qHTS; activity change, negative = inhibition: at 45.4 µM (top of the series)
[2] = qHTS for Inhibitors of the Aldehyde Dehydrogenase Family (ALDH1A2, ALDH1A3, ALDH2, ALDH3A1) (AID 2061307); settings: ALDH inhibition qHTS; activity change, negative = inhibition: at 50.3 µM (top of the series) unless noted; note: test system not described further here; potency is the fitted concentration of half-maximal effect; nearly all actives have a fitted effect of over 50% in size
[3] = target: Retinaldehyde dehydrogenase 3 (Homo sapiens) (UniProt P47895); experiment: qHTS for Inhibitors of the Aldehyde Dehydrogenase Family (ALDH1A3) Confirmatory screens (AID 2061311); settings: activity change, negative = inhibition: at 46 µM (top of the series); note: nearly all actives have a fitted effect of over 60% in size; note: potency is the fitted concentration of half-maximal effect
[4] = target: Retinal dehydrogenase 2 (Homo sapiens) (UniProt O94788); experiment: qHTS for Inhibitors of the Aldehyde Dehydrogenase Family (ALDH1A2) Confirmation screens (AID 2061314); settings: activity, negative = inhibition: at 45.9 µM (top of the series) unless noted; note: nearly all actives have a fitted effect of over 65% in size; note: potency is the fitted concentration of half-maximal effect
[5] = target: Aldehyde dehydrogenase 1A1 (Homo sapiens) (UniProt P00352); experiment: qHTS for Inhibitors of the Aldehyde Dehydrogenase Family (ALDH1A1) Confirmatory screens (AID 2061316); settings: activity change, negative = inhibition: at 47.3 µM (top of the series); note: potency is the fitted concentration of half-maximal effect; nearly all actives have a fitted effect of over 65% in size
[6] = BET inhibitor-based combinations targeting novel dependencies in MECOM-rearranged (r) AML: SET-2 cell line (AID 2202231); settings: SET-2 AML cells viability, CellTiter-Glo luminescence, 48 h; viability: active compounds read low, concentration not given here; note: potency is the fitted concentration of half-maximal effect; nearly all actives have a fitted effect of over 35% in size
Procedure, shortened: (§1)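 Here, 11-point titrations of each agent were applied to 500 seeded cells and incubated 48 hr; CellTiter-Glo signal, scaled against DMSO and empty wells, was integrated as AUC, then Z-scored within the individual line.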

[7] = BET inhibitor-based combinations targeting novel dependencies in MECOM-rearranged (r) AML: HNT-34 cell line (AID 2202234); note: nearly all actives have a fitted effect of over 35% in size; note: potency is the fitted concentration of half-maximal effect
Procedure, shortened: (§2)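 Normalized to DMSO and empty-well controls, the luminescence data from CellTiter-Glo after 48 hr drug exposure were fitted across 11 concentrations. Reported metrics are area under the dose-response curve and its Z-transformed form.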

[8] = BET inhibitor-based combinations targeting novel dependencies in MECOM-rearranged (r) AML: UCSD-AML1 cell line (AID 2202235); settings: UCSD-AML1 AML cells viability, CellTiter-Glo, 48 h; viability (% of control): at 46 µM (top of the series); note: potency is the fitted concentration of half-maximal effect; nearly all actives have a fitted effect of over 40% in size
Procedure, shortened: as §2

[9] = BET inhibitor-based combinations targeting novel dependencies in MECOM-rearranged (r) AML: AML-191 cell line (AID 2202236; note: nearly all actives have a fitted effect of over 35% in size; note: potency is the fitted concentration of half-maximal effect)
Procedure, shortened: as §1

[10] = BET inhibitor-based combinations targeting novel dependencies in MECOM-rearranged (r) AML: AML-194 cell line (AID 2202237; note: potency is the fitted concentration of half-maximal effect; nearly all actives have a fitted effect of over 40% in size)
Procedure, shortened: as §1

[11] = BET inhibitor-based combinations targeting novel dependencies in MECOM-rearranged (r) AML: OCI-AML3 cell line (AID 2202232); settings: CellTiter-Glo luminescence, 48 h; Potency: OCI-AML3 viability; viability (% of control): at 46 µM (top of the series); note: nearly all actives have a fitted effect of over 35% in size
Procedure, shortened: as §1

[12] = BET inhibitor-based combinations targeting novel dependencies in MECOM-rearranged (r) AML: MV-4-11 cell line (AID 2202233); settings: MV-4-11 AML viability, CellTiter-Glo luminescence, 48 h; series mostly up to 46 µM; note: potency is the fitted concentration of half-maximal effect; nearly all actives have a fitted effect of over 45% in size
Procedure, shortened: as §2
Tags give direction and shape of the fitted curve.

Compound | Potency [1] | Potency [2] | Potency [3] | Potency [4] | Potency [5] | Potency [6] | Potency [7] | Potency [8] | Potency [9] | Potency [10] | Potency [11] | Potency [12]
Cc1ccc(S(=O)(=O)Nc2cc(C(F)(F)F)ccc2C(=O)Nc2nc(-c3ccccc3)cs2)cc1 | inconclusive: 0.355 µM [inhibitor, full curve, poor fit] | active: 0.355 µM | inactive | inconclusive: 0.631 µM [inhibitor, full curve, poor fit] | inconclusive: 3.98 µM [inhibitor, full curve] | active: 14.8 µM | active: 7.42 µM | active: 8.33 µM | active: 5.9 µM | active: 9.34 µM | – | –
COC(=O)N1CCN(Cc2cccc(NC(=O)Nc3ccc(C)nc3)c2F)CC1 | inactive | inconclusive: 20.1 µM [inhibitor, partial curve] | inactive | inactive | – | – | inactive | inconclusive: 33.2 µM [inhibitor, single point] | inactive | – | inactive | inconclusive: 18.6 µM [inhibitor, partial curve, poor fit]
CC(=O)Nc1ccc(-c2csc(N3CCC(C(N)=O)CC3)n2)cc1 | inconclusive: 15.9 µM [inhibitor, partial curve] | inconclusive: 0.17 µM [inhibitor, full curve, poor fit] | inconclusive: 22.5 µM [inhibitor, partial curve] | active: 22.5 µM | inconclusive: 22.5 µM [inhibitor, partial curve, poor fit] | – | – | – | – | – | – | –
NC(=O)C1CCN(c2nc(-c3ccc(N4CCCCC4)nc3)cs2)CC1 | inconclusive: 12.7 µM [inhibitor, partial curve] | inconclusive: 11.3 µM [inhibitor, partial curve] | inconclusive: 12.7 µM [inhibitor, partial curve] | active: 12.7 µM | inconclusive: 12.7 µM [inhibitor, partial curve] | – | – | – | – | – | – | –

From PubChem BioAssay (NCATS)
